Measurements: EPA's CvTdb concentration-time database

Experiments:
[1] = tested on: Mouse; assay: concentration in plasma after dosing; settings: 10 min; dosed: Benzophenone; 30 mg/kg; oral; Male; B6C3F1
[2] = tested on: Mouse; assay: concentration in plasma after dosing; settings: 0.75 h; dosed: Benzophenone; 15 mg/kg; iv; Female; B6C3F1
[3] = tested on: Mouse; assay: concentration in plasma after dosing; settings: 0.5 h; dosed: Benzophenone; 60 mg/kg; oral; Female; B6C3F1
[4] = tested on: Mouse; assay: concentration in plasma after dosing; settings: 10 min; dosed: Benzophenone; 60 mg/kg; oral; Male; B6C3F1
[5] = tested on: Mouse; assay: concentration in plasma after dosing; settings: 6 h; dosed: Benzophenone; 60 mg/kg; oral; Male; B6C3F1
[6] = tested on: Mouse; assay: concentration in plasma after dosing; settings: 2 h; dosed: Benzophenone; 30 mg/kg; oral; Female; B6C3F1
[7] = tested on: Mouse; assay: concentration in plasma after dosing; settings: 2.5 h; dosed: Benzophenone; 15 mg/kg; iv; Female; B6C3F1
[8] = tested on: Rat; assay: concentration in plasma after dosing; settings: 16 h; dosed: Benzophenone; 10 mg/kg; oral; Male; F344
[9] = tested on: Rat; assay: concentration in plasma after dosing; settings: dosed: Benzophenone, 10 mg/kg, oral, Male, F344
[10] = tested on: Mouse; assay: concentration in plasma after dosing; settings: 1 h; dosed: Benzophenone; 60 mg/kg; oral; Female; B6C3F1
[11] = tested on: Rat; assay: concentration in blood after dosing; settings: 10 min; dosed: Benzophenone; 5 mg/kg; oral; Female; F344
[12] = tested on: Rat; assay: concentration in plasma after dosing; settings: dosed: Benzophenone, 5 mg/kg, oral, Male, F344
[13] = tested on: Mouse; assay: concentration in plasma after dosing; settings: 0.125 h; dosed: Benzophenone; 30 mg/kg; oral; Male; B6C3F1
[14] = tested on: Rat; assay: concentration in plasma after dosing; settings: dosed: Benzophenone, 5 mg/kg, oral, Female, F344
[15] = tested on: Mouse; assay: concentration in plasma after dosing; settings: 6 h; dosed: Benzophenone; 60 mg/kg; oral; Female; B6C3F1
[16] = tested on: Mouse; assay: concentration in plasma after dosing; settings: 0.5 h; dosed: Benzophenone; 30 mg/kg; oral; Male; B6C3F1
[17] = tested on: Mouse; assay: concentration in plasma after dosing; settings: 10 min; dosed: Benzophenone; 30 mg/kg; oral; Female; B6C3F1
[18] = tested on: Mouse; assay: concentration in plasma after dosing; settings: 7 min; dosed: Benzophenone; 15 mg/kg; iv; Male; B6C3F1
[19] = tested on: Mouse; assay: concentration in plasma after dosing; settings: 2 h; dosed: Benzophenone; 60 mg/kg; oral; Male; B6C3F1
[20] = tested on: Mouse; assay: concentration in plasma after dosing; settings: 10 min; dosed: Benzophenone; 15 mg/kg; iv; Female; B6C3F1
[21] = tested on: Mouse; assay: concentration in plasma after dosing; settings: 3 h; dosed: Benzophenone; 30 mg/kg; oral; Male; B6C3F1
[22] = tested on: Rat; assay: concentration in blood after dosing; settings: 0.5 h; dosed: Benzophenone; 10 mg/kg; oral; Male; F344
[23] = tested on: Mouse; assay: concentration in plasma after dosing; settings: 4 min; dosed: Benzophenone; 15 mg/kg; iv; Female; B6C3F1
[24] = tested on: Mouse; assay: concentration in plasma after dosing; settings: 2.5 min; dosed: Benzophenone; 30 mg/kg; oral; Male; B6C3F1
[25] = tested on: Mouse; assay: concentration in plasma after dosing; settings: 6 h; dosed: Benzophenone; 30 mg/kg; oral; Female; B6C3F1
[26] = tested on: Mouse; assay: concentration in plasma after dosing; settings: 5 min; dosed: Benzophenone; 60 mg/kg; oral; Female; B6C3F1
[27] = tested on: Rat; assay: concentration in plasma after dosing; settings: dosed: Benzophenone, 10 mg/kg, oral, Female, F344
[28] = tested on: Mouse; assay: concentration in plasma after dosing; settings: 10 min; dosed: Benzophenone; 60 mg/kg; oral; Female; B6C3F1
[29] = tested on: Rat; assay: concentration in plasma after dosing; settings: 16 h; dosed: Benzophenone; 10 mg/kg; oral; Male; F344; remark: listed apart in the source
[30] = tested on: Mouse; assay: concentration in plasma after dosing; settings: 1.25 h; dosed: Benzophenone; 15 mg/kg; iv; Female; B6C3F1
[31] = tested on: Rat; assay: concentration in plasma after dosing; settings: dosed: Benzophenone, 5 mg/kg, oral, Male, F344; remark: listed apart in the source
[32] = tested on: Rat; assay: concentration in plasma after dosing; settings: dosed: Benzophenone, 10 mg/kg, oral, Male, F344; remark: listed apart in the source
[33] = tested on: Mouse; assay: concentration in plasma after dosing; settings: 5 min; dosed: Benzophenone; 15 mg/kg; oral; Male; B6C3F1
[34] = tested on: Mouse; assay: concentration in plasma after dosing; settings: 4 min; dosed: Benzophenone; 15 mg/kg; iv; Female; B6C3F1; remark: listed apart in the source
[35] = tested on: Rat; assay: concentration in blood after dosing; settings: 0.125 h; dosed: Benzophenone; 10 mg/kg; oral; Male; F344
[36] = tested on: Mouse; assay: concentration in plasma after dosing; settings: 5 min; dosed: Benzophenone; 60 mg/kg; oral; Male; B6C3F1
[37] = tested on: Mouse; assay: concentration in plasma after dosing; settings: 4 min; dosed: Benzophenone; 15 mg/kg; iv; Male; B6C3F1
[38] = tested on: Mouse; assay: concentration in plasma after dosing; settings: 10 min; dosed: Benzophenone; 60 mg/kg; oral; Male; B6C3F1; remark: listed apart in the source
[39] = tested on: Rat; assay: concentration in plasma after dosing; settings: dosed: Benzophenone, 5 mg/kg, oral, Female, F344; remark: listed apart in the source
[40] = tested on: Mouse; assay: concentration in plasma after dosing; settings: 0.25 h; dosed: Benzophenone; 15 mg/kg; iv; Female; B6C3F1
[41] = tested on: Rat; assay: concentration in plasma after dosing; settings: dosed: Benzophenone, 10 mg/kg, oral, Female, F344; remark: listed apart in the source

O=C(c1ccccc1)c1ccccc1 [Benzophenone]
Settings	concentration in blood [ng/mL]	concentration in plasma [ng/mL]
[1]	–	1620
[2]	–	587
[3]	–	913
[4]	–	4500
[5]	–	44
[6]	–	198
[7]	–	144
[8]	–	46.8
[10]	–	708
[11]	606	–
[13]	–	1590
[15]	–	80.5
[16]	–	645
[17]	–	1100
[18]	–	4100
[19]	–	428
[20]	–	3710
[21]	–	57
[22]	1480	–
[23]	–	4820
[24]	–	1290
[25]	–	26.7
[26]	–	5060
[28]	–	3260
[29]	–	62.6
[30]	–	255
[33]	–	1110
[34]	–	5380
[35]	1190	–
[36]	–	6330
[37]	–	5450
[38]	–	3740
[40]	–	2110

Settings	concentration in plasma [ng/mL]
[9], 6 h	130
[9], 10 min	348
[12], 6 h	52.6
[12], 10 min	231
[14], 1 h	177
[14], 2.5 min	31.8
[27], 0.25 h	427
[27], 24 h	28.7
[31], 0.25 h	180
[31], 24 h	20.3
[32], 0.5 h	396
[32], 10 h	135
[39], 0.25 h	255
[39], 24 h	12.1
[41], 0.5 h	474
[41], 10 h	84.3
